Experimental data: PubChem BioAssay AID485344 (National Center for Advancing Translational Sciences (NCATS), 2010)
Hit rate of the full screen: of about 340,000 compounds, about 6,900 (2%) were called active. No stated cut-off is given here; in the data, active means inhibition above about 30%; inactive means below that, where a call was filed. This is a selection; strong and weak results do not stand in their true shares. Entries without a call were filed so in the source.
Further: 0% is about no effect.

Each compound was assayed against D(2) dopamine receptor (Homo sapiens) (UniProt P14416) (assay: HTS Assay for Allosteric Antagonists of the Human D2 Dopamine Receptor: Primary Screen for Antagonists). Conditions: HEK293 TREx D2 cells, calcium flux, dopamine EC80; at 10 µM; stronger effect = higher value.
Chain of UniProt P14416 (P14416 whole entry, looked up): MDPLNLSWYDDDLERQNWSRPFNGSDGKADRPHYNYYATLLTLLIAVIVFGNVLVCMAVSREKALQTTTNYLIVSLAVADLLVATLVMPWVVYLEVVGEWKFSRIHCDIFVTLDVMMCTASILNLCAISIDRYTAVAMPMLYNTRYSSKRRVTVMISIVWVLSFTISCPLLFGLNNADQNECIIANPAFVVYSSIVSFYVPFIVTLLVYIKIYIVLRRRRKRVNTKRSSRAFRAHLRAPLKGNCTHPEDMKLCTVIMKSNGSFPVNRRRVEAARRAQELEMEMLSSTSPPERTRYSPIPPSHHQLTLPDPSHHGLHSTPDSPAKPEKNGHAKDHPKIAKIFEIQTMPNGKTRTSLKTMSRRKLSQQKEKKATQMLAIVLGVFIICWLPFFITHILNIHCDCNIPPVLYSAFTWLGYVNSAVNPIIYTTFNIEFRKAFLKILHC
Outline: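 Overnight-induced (tetracycline, 30 C) HEK293 T-REx cells carrying force-coupled D2 receive a no-wash calcium dye, then compound, then EC80 dopamine at 180 s; signals are read kinetically throughout.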
With CCC(CC)C(=O)Nc1cc(-c2nc3cccnc3s2)ccc1C the inhibition was -13.9%.
CCOC(=O)Cn1c(=O)oc2cc(S(=O)(=O)N3CCN(c4ccc(F)cc4)CC3)ccc21 gave an inhibition of 23.1%.
For COc1ccc(Nc2c(-c3ccsc3)nc3nc(C)cc(C)n23)cc1, the inhibition was 2.91%.
Compound COc1ccc(CCNC(=O)c2c(C)oc3ncn(CC(C)C)c(=O)c23)c(OC)c1 has an inhibition of -0.787%.
For COc1ccc(NC(=O)CC(C)S(=O)(=O)c2cc3c(cc2C)NC(=O)CO3)cc1OC (stereo not given), the inhibition was 0.39%.
Compound O=C(Nc1nnc(S(=O)(=O)N2CCCCCC2)s1)c1ccc(Cl)cc1 has an inhibition of 19%.
For CCCC(=O)Nc1nc2nc(-c3ccccc3)cc(=O)n2[nH]1, the inhibition was active: 31.8%.
COc1ccccc1CNC(=O)C1CCN(c2nnc(C)c3c(C)n(-c4ccccc4)nc23)CC1 was tested, and the inhibition was -7.41%.
CC(C)CC(=O)OCc1cc(=O)n2nc(C3CCCCC3)sc2n1 showed an inhibition of 9.4%.
For Cn1cccc1Cc1nnc(SCC(=O)NC2CCCC2)n1-c1ccc(F)cc1, the inhibition was active: 36.2%.
Compound COCCCNC(=O)c1ccc(Cn2c(=O)c3cccn3c3cccnc32)cc1 has an inhibition of 2.72%.
COc1ccc(C(CC(=O)Nc2ccc(Br)cn2)N2Cc3ccccc3C2=O)cc1 (stereo not given) was tested, and the inhibition was -8.3%.
In the case of Cc1nn(CC(=O)NCc2ccc(N(C)C)cc2)c(=O)c2nn(-c3ccccc3)c(C)c12, the inhibition is reported as -4.2%.
For COc1ccccc1CCNC(=O)C1CCN(c2nnc(C)c3c(C)n(-c4ccc(C)cc4)nc23)CC1, the inhibition was -3.59%.
In the case of C/C(=N\NC(=O)CN(c1ccccc1)S(C)(=O)=O)c1ccccc1O, the inhibition is reported as active: 43.9%.
O=[N+]([O-])c1ccc(O)c(-c2ccnc3cc(-c4ccccc4)nn23)c1 showed an inhibition of 3.25%.
In the case of Cc1ccc(Cn2c(CN3CCN(c4cccc(Cl)c4)CC3)nc3c2c(=O)n(C)c(=O)n3C)cc1, the inhibition is reported as -13.5%.
Cn1c(C(=O)NCc2cccc(Cl)c2)cc2oc3ccccc3c21 was tested, and the inhibition was -2.81%.
CC(=O)c1ccc(N2CCN(C(=O)CCCn3c(=O)[nH]c4ccsc4c3=O)CC2)cc1 gave an inhibition of -9.21%.
For CC(C)OC(=O)c1c(NC(=O)CCn2nnc3ccccc32)sc2c1CCCC2, the inhibition was active: 36.7%.
For C=C(C)[C@@H]1CC[C@]2(C(=O)O)CC[C@]3(C)[C@H](CC[C@@H]4[C@@]5(C)CC[C@H](O)C(C)(C)[C@@H]5CC[C@]43C)[C@@H]12, the inhibition was active: 36.4%.
Cc1nn2c(=O)cc(COC(=O)c3ccc(NC(=O)COc4ccccc4F)cc3)nc2s1 showed an inhibition of 17.4%.
For COc1ccc(CNC(C)CCc2ccccc2)cc1 (stereo not given), the inhibition was active: 61.5%.
Cc1nc2c(c(C)nn2C(C)(C)C)c(C)c1CCC(=O)Nc1ccc(F)cc1 showed an inhibition of -5.43%.
With Cc1ccc2oc(C(=O)Nc3sc4c(c3C(=O)NCc3ccco3)CCC4)cc(=O)c2c1 the inhibition was 6.24%.
Cc1ccc(CNC(=O)Cn2c3ncccc3c(=O)n2-c2ccc(C)cc2)cc1 showed an inhibition of 4.3%.
For CN1CCN(c2nc(Nc3ccccc3)nc(N)c2[N+](=O)[O-])CC1, the inhibition was active: 82.6%.
CC(C)c1cc(-c2nc(-c3cccc(Cl)c3)no2)n[nH]1 gave an inhibition of -2.11%.
Compound COc1ccccc1N1CCN(c2cc(C)nc3nncn23)CC1 has an inhibition of 0.641%.
In the case of CCOc1ccc(CNC(=O)CSc2c3c(nc4ccc(Cl)cc24)CCCC3)cc1, the inhibition is reported as 5.99%.
COc1ccc(C)c2sc(N3CCN(C(=O)c4ccco4)CC3)nc12 was tested, and the inhibition was -24.4%.
Compound COc1ccccc1CNC(=O)c1ccc2c(c1)N(Cc1c(F)cccc1Cl)C(=O)CS2 has an inhibition of -12.5%.
Cc1cc(C)cc(NC(=O)c2cc(S(=O)(=O)N3CCc4ccccc43)cn2C)c1 showed an inhibition of -8.22%.
With O=C(Nc1ccc2oc(-c3cccc(F)c3)nc2c1)c1ccc2ccccc2c1 the inhibition was -2.04%.
In the case of CC(C)c1ccc(NC(=O)Cn2cc(S(=O)(=O)Cc3ccccc3Cl)c3ccccc32)cc1, the inhibition is reported as -0.847%.
COc1cccc(NC(=O)Cn2c(=O)n(CCCCC(=O)NCc3ccccc3Cl)c(=O)c3ccccc32)c1 was tested, and the inhibition was -24.5%.
O=C(CSc1ncc(S(=O)(=O)c2ccc(Br)cc2)c(=O)[nH]1)Nc1ccc2c(c1)OCCO2 showed an inhibition of -14.2%.
For CCCCC(Sc1nc2cc3c(cc2c(=O)n1CCCC(=O)NCc1ccc2c(c1)OCO2)OCO3)C(=O)OCC (stereo not given), the inhibition was 23.5%.
CCOc1ccccc1N1CCN(S(=O)(=O)c2ccc(C3CCCCC3)cc2)CC1 was tested, and the inhibition was 3.23%.
Work on CC1CCN(C(=O)CSc2nc3ccccc3nc2Cc2ccccc2)CC1 yielded an inhibition of 12.2%.
CCC(=O)N1CCc2cc(S(=O)(=O)Nc3cc(C)ccc3OC)ccc21 gave an inhibition of 14.4%.
For Cc1ccc(-n2c(SCC(=O)c3ccccc3)nc3c([nH]c4ccccc43)c2=O)cc1, the inhibition was -20.9%.
With CC(C)C(=O)Nc1ccc2nc(SCC(=O)N3CCc4ccccc43)sc2c1 the inhibition was -9.27%.
COc1ccc(-c2csc3ncnc(Nc4cc(OC)cc(OC)c4)c23)cc1 was tested, and the inhibition was 3.96%.
Work on COc1ccccc1CC(=O)Nc1ccc2nc(Nc3cccc(Cl)c3)cc(C)c2c1 yielded an inhibition of 4.13%.
CCOc1ccc(CNS(=O)(=O)c2ccc3c(c2)CCCN3C(C)=O)cc1 gave an inhibition of -11.8%.
CC1Cc2cc(S(=O)(=O)CCC(=O)NCc3ccccc3Cl)ccc2N1C(=O)C1CC1 (stereo not given) gave an inhibition of 6.78%.
Cc1ccc(C)c(NC(=O)C2CCN(c3cc(C)nc4c(-c5ccc(Cl)cc5)c(C)nn34)CC2)c1 was tested, and the inhibition was -4.52%.
With Cc1ccc(F)cc1NC(=O)CN1CCN(c2ccccn2)CC1 the inhibition was active: 50.3%.
COc1cccc(NC(=O)Cn2cc(C(=O)c3ccco3)c3ccccc32)c1 was tested, and the inhibition was 15.8%.
COc1ccc(-n2cc(C(=O)Oc3cc(C)cc(C)c3)c3ccccc3c2=O)cc1 showed an inhibition of 3.97%.
CCOc1ccc(CN2C(=O)c3ccccc3C2C(=O)NCCc2ccc(OC)c(OC)c2)cc1 (stereo not given) was tested, and the inhibition was 18.6%.
In the case of CN(C)S(=O)(=O)c1ccc(Cl)c(NC(=O)CN2CCCC2)c1, the inhibition is reported as active: 35.9%.
CCOC(=O)c1c(S(=O)(=O)N2CCC(C(=O)Nc3ccc(F)cc3F)CC2)c(C)n(C)c1C gave an inhibition of 8.54%.
COc1ccc(Cn2c(CO)cnc2SCc2ccccc2C)cc1 gave an inhibition of 21.6%.
COc1ccc(CNC(=O)Cc2c(C)c3cc4c(C)coc4c(C)c3oc2=O)cc1OC was tested, and the inhibition was -1.58%.
For Cc1ccc2oc(=O)c3cnn(CC(=O)N(Cc4ccco4)C4CCCCC4)c3c2c1, the inhibition was active: 32.4%.
CC(C)c1ccc2occ(CC(=O)N(Cc3ccc(F)cc3)C3CCS(=O)(=O)C3)c2c1 (stereo not given) was tested, and the inhibition was -13.1%.
COc1ccc(CCNC(=O)c2ccc3c(c2)ncn3-c2ccc(C(C)C)cc2)cc1OC was tested, and the inhibition was 8.92%.
In the case of CC(=O)c1ccc(N2CCN(C(=O)Nc3ccc(C(C)C)cc3)CC2)cc1, the inhibition is reported as 8.97%.
O=C(Nc1ccccc1)N(Cc1cccc(Cl)c1)c1ccccn1 gave an inhibition of 1.48%.
For Cn1c2ccccc2c2cnn(CC(=O)NCCCN3CCN(c4ccccc4F)CC3)c(=O)c21, the inhibition was active: 63.3%.
COc1ccc(NC(=O)c2ccco2)cc1NC(=O)c1c(OC)cccc1OC showed an inhibition of -9.01%.
Work on COc1ccc(NS(=O)(=O)c2ccc3[nH]c4c(c3c2)CCCCC4)cc1 yielded an inhibition of 11.1%.
CC(=O)Nc1c(C)nn(-c2ccccc2)c1N1CCC(C(=O)Nc2ccccc2F)CC1 gave an inhibition of -8.26%.
In the case of COc1ccc(Oc2ncc(CN3CCN(c4ccccc4)CC3)s2)cc1, the inhibition is reported as active: 76.3%.
In the case of COc1ccc(NC(=O)CCc2nnc3n(Cc4ccc(C)cc4)c(=O)c4ccccc4n23)cc1, the inhibition is reported as -2.27%.
With CCc1ccccc1NC(=O)Cn1ccn(Cc2ccccc2)c(=O)c1=O the inhibition was 26%.
For COc1cccc(CNCCCSc2nnnn2C)c1OC, the inhibition was -3.99%.
CC1CCCCN1C(=O)CCS(=O)(=O)c1cc2c(cc1Cl)NC(=O)CO2 (stereo not given) gave an inhibition of -13%.
With CN(CC(=O)Nc1cccc(S(=O)(=O)N(C)C)c1)Cc1ccccc1 the inhibition was active: 32.9%.
Work on CCS(=O)(=O)c1nc(S(=O)(=O)c2ccc(C)cc2)c(NC)s1 yielded an inhibition of -4.07%.
For Cc1cccc(C(=O)N2CCc3cc(CNS(=O)(=O)c4ccc(F)c(Cl)c4)ccc32)c1, the inhibition was -16.5%.
With CC(CC(=O)N1CCN(C(=O)c2ccccc2)CC1)c1ccccc1 (stereo not given) the inhibition was active: 38%.
O=C(C1CCCO1)N1CCN(C(=S)Nc2ccc(F)cc2)CC1 (stereo not given) was tested, and the inhibition was active: 41%.
With Cn1nc(C(=O)N2CCN(c3ccc(F)cc3)CC2)c2c1-c1ccccc1SC2 the inhibition was 3.51%.
For CC1CCCN(S(=O)(=O)c2cc3c4c(c2)CC(=O)N4CCC3)C1 (stereo not given), the inhibition was -10.8%.
With COc1ccc(N2CCN(c3ccc4nnc(CCC(=O)Nc5ccc(C)cc5)n4n3)CC2)cc1 the inhibition was active: 34%.
Compound COc1ccc(CCNC(=O)c2cn(C)c3ccc(S(=O)(=O)N(C)C)cc3c2=O)cc1OC has an inhibition of -14.7%.
Work on COc1ccc2c(c1)sc1ncc(C(=O)NCc3cccc(C)c3)c(=O)n12 yielded an inhibition of 1.04%.
Work on CC(C)c1ccc(NC(=O)Cn2nnc(C(=O)NCc3ccc(Cl)cc3)c2N)cc1 yielded an inhibition of -1.74%.
CCN(C(=O)c1cn(CC(C)C)c(=O)c2cc(OC)c(OC)cc12)c1cc(OC)ccc1OC gave an inhibition of -14%.
For CCc1ccc(C(=O)c2cn(CC(=O)Nc3cc(F)ccc3F)c3nc(C)ccc3c2=O)cc1, the inhibition was -5.69%.
Compound CCOC(=O)C1CCC(CN(Cc2ccc(OC)cc2)S(=O)(=O)c2ccc(F)c(C(=O)Nc3c(C)cccc3C)c2)CC1 (stereo not given) has an inhibition of -13.9%.
With Cc1ccccc1Nc1c(-c2ccccc2)nc2cccc(C)n12 the inhibition was 13.6%.
Cc1cc(F)ccc1NC(=O)CS(=O)(=O)c1cccc2nsnc12 showed an inhibition of -9.52%.
In the case of CS(=O)(=O)Nc1ccccc1C(=O)OCc1cc(=O)n2nc(C3CCCCC3)sc2n1, the inhibition is reported as 5.86%.
In the case of O=C(Cn1cnc2c(nc3n2CCCCC3)c1=O)Nc1ccc(F)c(Cl)c1, the inhibition is reported as -4.49%.
COc1ccc(CNc2nc(SCc3ccccc3Cl)nc3ccccc23)cc1 showed an inhibition of 24.2%.
In the case of CSc1ccc(CCNC(=O)c2cc3cc(S(=O)(=O)N4CCCCC4)ccc3n2C)cc1, the inhibition is reported as -0.476%.
For O=C1/C(=C\c2cc(Cl)c(O)c(Cl)c2)SC(=S)N1Cc1ccccc1, the inhibition was active: 69.4%.
CCCOc1ccc(C(=O)Nc2ccc(NC(=O)c3ccccc3)c(C)c2)cc1 showed an inhibition of 1.93%.
For Cc1cccc(CC(=O)NCc2nc3cccnc3n2Cc2ccc(F)cc2)c1, the inhibition was 14.1%.
CCc1cc(=O)[nH]c(SCc2nc(-c3ccccc3)no2)n1 showed an inhibition of -8.06%.
In the case of Cc1nnc2c(N3CCN(c4ccccc4F)CC3)nc3ccc(C(=O)c4ccccc4)cc3n12, the inhibition is reported as -12.7%.
